Measured values reported in the RNAGym collection of RNA variant scans (doi:10.7554/elife.90254).
Read counts are not given, so values of variants with three or more changes are uncertain.

B1: LINE1-mini (parent)
chain: GGCAGAGCUCAACACAGCGUGGCAAAGUGGCUGUGGCUAGACUGCC

Variants of: B1
Experiment: self-cleavage, relative activity (ratio to wild type); higher = more cleavage; in vitro, sequencing; the parent is a self-cleaving ribozyme

Variant | self-cleavage
G1C C18G U38A C45G | 0.02
G1C C18U C23U C46G | 0.21
G1C C18U C46A | 0.47
G1C C18U C46U | 1.34
G1C C23A A26U | 0.36
G1C C23A U34A C42U | 0.02
G1C C23G C42G C45A | 0.01
G1C C23G G30A C45U | 0.07
G1C C23U G33A | 0.15
G1C C31A U32A A41C | 0.01
G1C C31U C46A | 0.06
G1C G2A A4G A16U C31G G44U | 0.02
G1C G2A A6U A11G | 0.01
G1C G2A A12C C31A A41G | 0.01
G1C G2A C8U A11U C13U G17U | 0.01
G1C G2A G22C U28G | 0.64
G1C G2A G30U | 0.05
G1C G2C C8A A26G G30U G33U | 0.05
G1C G2C C18A C31G A41C | 0.01
G1C G2C G7C C10U A26U | 0.05
G1C G2C G17U U28C C31U A39G | 0.06
G1C G2C G19A A24U C31G | 0.08
G1C G2U A12U C23G G44A | 0.23
G1C G2U A16U G21U | 0.02

Variant | self-cleavage
G1C G2U G7C G29C | 0.01
G1C G2U G22C | 0.14
G1C G2U U20G G30A | 0.02
G1C G5A A11G U20G | 0
G1C G5A A12U G44A | 0.01
G1C G5A C15A C18U A39G | 0.01
G1C G5A C15U G29U | 0.08
G1C G5A U32A C46A | 0.04
G1C G5C A6C G36U | 0.07
G1C G5C A16G U20C A25U G27U U28A G30U | 0.01
G1C G5C C10A C46U | 0.01
G1C G5C C23G G33C A39U | 0.01
G1C G5C G19C G21U C31A G44A | 0.02
G1C G5C G21C G27A U38C | 0.02
G1C G5C G35A G40U | 0.02
G1C G5C G36U | 0.02
G1C G5U A24G G27U G29A U34A | 0.02
G1C G5U C18A G27A U43A | 0
G1C G5U C18A U32A | 0
G1C G5U C46G | 0.06
G1C G5U G7A A12C A39U | 0.01
G1C G5U G29C | 0
G1C G5U G29U | 0.06
G1C G7A C10A A12U A14U | 0.02

Variant | self-cleavage
G1C G7A C10A G44U C45G | 0
G1C G7A C15A A24C G44C | 0.16
G1C G7A G35A | 0.02
G1C G7A G44U | 0.12
G1C G7A U9A | 0.02
G1C G7A U9G G21C G29A U38C A39C | 0
G1C G7C A16C G40C G44C C46G | 0.01
G1C G7C A25G | 0.01
G1C G7C C8G U9A C15A C42G | 0.04
G1C G7C C23A C31U | 0.03
G1C G7C G29C U34A | 0.01
G1C G7C G30C U34C G36C C37A | 0.01
G1C G7C U9C U20C G40C | 0.01
G1C G7U C13A G44U | 0.11
G1C G7U C45G | 0.01
G1C G17A G22A G35U C45U | 0.03
G1C G17C C23G A24U C37U C42A G44C | 0.01
G1C G17U G33U G36A C46G | 0
G1C G17U U28G G40A | 0.01
G1C G19A U32A | 0.03
G1C G19C C37U | 0
G1C G19U C23A U38A | 0.01
G1C G21A A24U G36C | 0.02
G1C G21A C23G A25G C31G | 0.01

Variant | self-cleavage
G1C G21A U34A C42U | 0.03
G1C G21C A41C | 0.02
G1C G21U C46G | 0.06
G1C G21U G27U | 0.14
G1C G21U G29A C37U | 0.01
G1C G22C A25G G35C | 0.06
G1C G22C A41G | 0
G1C G22C G30U U38G C46U | 0.01
G1C G22U C42U | 0.1
G1C G22U C45U C46U | 0.54
G1C G22U G40U | 0.03
G1C G27C U38C A41G | 0.03
G1C G27C U43G | 0.01
G1C G29U U43A | 0.02
G1C G33A G40A | 0.02
G1C G35C U38A | 0.07
G1C G35U C37U | 0.03
G1C G35U C45U | 0.03
G1C G36A C37A | 0.03
G1C U9A C37U C46U | 0.01
G1C U9C A39C | 0.02
G1C U9C C15U G33U | 0.01
G1C U9C G19A A25G G33U C46A | 0.01
G1C U9G A16C U32A G40U C46U | 0.01

Variant | self-cleavage
G1C U9G A16U G35A | 0.04
G1C U20A G21U | 0.03
G1C U20A G29U U43A | 0
G1C U20A G30A | 0.09
G1C U20A G36C | 0.02
G1C U20G A39U | 0.01
G1C U28A C37G | 0.01
G1C U32C C37A U43C | 0.01
G1C U34A G36U | 0
G1C U34G G35U G36C C45U | 0.01
G1C U43C C46A | 0.01
G1U A4C A6U A14U C15A A24U | 0.04
G1U A4C A12U C23A U28G G40C | 0
G1U A4C A26C G27A G36C A41U | 0.09
G1U A4C C8A C13A G17A A24C | 0.22
G1U A4C C8G U32C C45A | 0.08
G1U A4C C45U | 0.03
G1U A4C G22U C23U C37A C46U | 0.17
G1U A4G A6U A14C A16U G19A G22C | 0.03
G1U A4G A39C | 0.04
G1U A4G C13A C15A C18A | 0.03
G1U A4G C13U G21U A25U C31A | 0.03
G1U A4G G7A G19C U38C G44C | 0.01
G1U A4G G17U C31U G36U C37A | 0.94

Variant | self-cleavage
G1U A4G U32A G33A | 0.06
G1U A4G U34C | 0.13
G1U A4U G27C | 0.12
G1U A4U U28G G44A | 1.32
G1U A6C C10A G33U C42A | 0.01
G1U A6C G22C A26C G35C G40C U43G C45A | 0
G1U A6C U34C | 0.03
G1U A6G A24U | 0.18
G1U A6G C8G | 0.03
G1U A6G C10A A11G A14G G21C | 0.02
G1U A6G C18U C23U A24U | 0.11
G1U A6G C37A A41G U43G | 0.03
G1U A6G G21U G36A | 0.03
G1U A6G G30C U38G | 0
G1U A6U A16G A24G A26U A39U | 0.03
G1U A6U G7C C15A G27U | 0.04
G1U A6U G17U U28A | 0.03
G1U A6U G22A U28G G35C | 0.07
G1U A6U U20C U38G | 0
G1U A6U U32G | 0.06
G1U A6U U34C | 0.09
G1U A6U U34C C46G | 0.03
G1U A11C A39G | 0.01
G1U A11C C18A A25C G36U | 0.01

Variant | self-cleavage
G1U A11G C15G G27U U28C | 0.01
G1U A11U A14G C18G | 0
G1U A11U A14U A16U | 0.01
G1U A11U A25G G36U | 0
G1U A11U G22A G27U G40C G44A | 0
G1U A11U G22U | 0.15
G1U A11U G36C | 0.01
G1U A12G C13U G27U G30A | 0.01
G1U A12G C15G G44C | 0.04
G1U A12G C31U | 0.11
G1U A12G G21A | 0.01
G1U A12U C15G C18U G30C | 0
G1U A14C C31A C46A | 0.01
G1U A14C G27C | 0.01
G1U A14C G40A C45A | 0.06
G1U A14U G29C | 0.22
G1U A16C C18U G21U U34A | 0.02
G1U A16G C23U | 0.1
G1U A16G G22U | 0.04
G1U A16U A41G G44U | 0.04
G1U A16U U20G U43G | 0.01
G1U A24C G29U | 0.34
G1U A24C G40A | 0
